# The whole screen tested about 310,000 compounds, of which about 14,000 (4.5%) showed an effect of 50% or more. The effect is printed as a negative number. Some of the results follow.
# Target: human ether-à-go-go-related gene (hERG) potassium channel (human, UniProt Q12809)
# Test: primary screen, population patch clamp on CHO cells stably expressing hERG
# 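Further: peak tail current of the secondary pulse compared with the same well before compound.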
# Chain of human ether-à-go-go-related gene (hERG) potassium channel (Q12809 whole entry, looked up): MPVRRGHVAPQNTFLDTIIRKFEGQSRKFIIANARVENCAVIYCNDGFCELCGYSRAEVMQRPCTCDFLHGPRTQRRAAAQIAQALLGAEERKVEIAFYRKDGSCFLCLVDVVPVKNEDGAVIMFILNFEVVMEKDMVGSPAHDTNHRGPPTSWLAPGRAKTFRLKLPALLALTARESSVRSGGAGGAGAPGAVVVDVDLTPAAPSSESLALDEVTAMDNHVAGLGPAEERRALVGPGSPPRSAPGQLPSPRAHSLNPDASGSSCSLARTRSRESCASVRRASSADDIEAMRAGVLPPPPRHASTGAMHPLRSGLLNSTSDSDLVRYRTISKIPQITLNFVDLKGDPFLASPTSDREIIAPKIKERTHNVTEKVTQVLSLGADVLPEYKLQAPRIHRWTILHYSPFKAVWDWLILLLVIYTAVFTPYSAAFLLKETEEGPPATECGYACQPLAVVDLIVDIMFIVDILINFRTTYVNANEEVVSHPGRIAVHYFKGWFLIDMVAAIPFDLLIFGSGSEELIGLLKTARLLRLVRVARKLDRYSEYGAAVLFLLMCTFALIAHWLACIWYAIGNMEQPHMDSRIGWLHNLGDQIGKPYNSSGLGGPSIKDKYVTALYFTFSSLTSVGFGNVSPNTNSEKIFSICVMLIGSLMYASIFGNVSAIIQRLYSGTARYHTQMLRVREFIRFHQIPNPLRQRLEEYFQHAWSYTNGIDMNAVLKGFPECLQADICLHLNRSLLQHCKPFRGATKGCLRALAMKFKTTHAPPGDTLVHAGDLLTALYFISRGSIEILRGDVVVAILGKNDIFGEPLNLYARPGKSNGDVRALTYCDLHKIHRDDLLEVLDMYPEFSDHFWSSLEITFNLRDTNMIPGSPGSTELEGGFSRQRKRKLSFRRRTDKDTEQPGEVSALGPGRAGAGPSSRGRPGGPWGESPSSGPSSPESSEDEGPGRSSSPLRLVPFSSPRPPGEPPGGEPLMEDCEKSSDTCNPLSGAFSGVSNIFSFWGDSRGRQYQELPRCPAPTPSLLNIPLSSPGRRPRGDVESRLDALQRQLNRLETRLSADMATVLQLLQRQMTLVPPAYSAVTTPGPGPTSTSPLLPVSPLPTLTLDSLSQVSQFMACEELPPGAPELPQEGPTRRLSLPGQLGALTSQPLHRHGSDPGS
row,Compound,"hERG current change (%, negative = inhibition) at 10uM [%]"
1,COCCCNC(=O)Cn1nnc(-c2ccc(NC(=O)c3ccccc3F)cc2)n1,-2.44
2,Cc1ccc2[nH]c(=O)c(CN(Cc3nnnn3Cc3ccccc3)C3CCCC3)cc2c1,7.16
3,O=C(OCC(=O)N1CCc2ccccc21)C1CCCN1S(=O)(=O)c1ccc(Cl)cc1 (stereo not shown),-17.8
4,O=C(CNC(=S)N(Cc1ccccc1)Cc1ccccc1F)NCCc1ccc(Cl)cc1,5.67
5,CCOc1ccc(NC2=NCC(=O)N2CCc2ccccc2)cc1.Cl,3.02
6,C=CCNC(=S)N1CCOCC1,-1.69
7,CC1CCc2nc(NC(=O)c3ccc(N4C(=O)CCC4=O)cc3)sc2C1 (stereo not shown),12.6
8,COc1cccc([C@@H]2CC=C(C(=O)O)[C@H](c3ccccc3F)N2S(=O)(=O)c2ccc(C)cc2)c1,10.9
9,Cc1cc(C(=O)Nc2cc(C(C)(C)C)on2)c(C)o1,17.2
10,CC(C)n1c(/N=C/c2ccccc2O)nc2ccccc21,19
11,COc1cccc(-n2c(SCC(=O)NC3CCCC3)nnc2-c2ccco2)c1,-73.7
12,Cc1ccccc1N(CC(=O)NCc1ccccc1)C(=O)CCC(=O)Nc1nccs1,11.8
13,CN1CCN(C(=O)Nc2ccccc2)CC1.O=C(O)C(=O)O,23.2
14,CCCCN1C(=O)C(=O)N(CC(=O)N2CCN(c3ccccc3)CC2)C1=O,3.67
15,O=C(Nc1nc2ccccc2[nH]1)C1CC(=O)N(c2ccc3c(c2)OCCO3)C1 (stereo not shown),-6.56
16,CC1CCN(S(=O)(=O)c2ccc(NC(=O)C3CC3)cc2)CC1,-4.45
17,Cc1cc([N+](=O)[O-])nn1CCCC(=O)O,5.95
18,O=C(CCc1c[nH]c2ccccc12)NC1CC1,14.1
19,Cn1cccc/c1=N\c1cccc[n+]1C.[I-],16.6
20,CSc1cccc(NC(=O)CCCNC(=O)c2ccc(Cl)cc2)c1,4.42
21,Cc1ccc(-n2cccn2)c(CN2CCCC(CNC(=O)c3ccc(F)cc3)C2)c1 (stereo not shown),-75.5
22,CCN(CC)S(=O)(=O)c1ccc2oc(Nc3ccc4c(c3)OCCO4)nc2c1,1.32

row,Compound,"hERG current change (%, negative = inhibition) at 10uM [%]"
1,O=Cc1cn(Cc2ccc(F)cc2)c2ccccc12,13.7
2,COc1ccc(-n2c(SCC(=O)Nc3ccc(C(N)=O)cc3)nc3ccccc3c2=O)cc1OC,14.1
3,O=C(CN1C2CCCC1CC(NC(=O)c1ccccc1)C2)Nc1nccs1 (stereo not shown),-46
4,CCOc1ccc(CCNC(=O)c2cc3c(C)nccc3[nH]c2=O)cc1OCC,-24.8
5,CCN(C(=S)Nc1cccnc1)c1cccc2ccccc12,9.76
6,Cc1csc(NC(=O)c2cc3c(s2)CCCC3)n1,-20.9
7,O=S(=O)(Nc1nc2ccccc2nc1Cl)c1cccc(C(F)(F)F)c1,6.43
8,COc1ccc(/C=N/NC(=O)c2cccc(COCC(F)(F)C(F)F)c2)cc1,-35.8
9,O=C(c1ccc2c(c1)OCO2)C1CCCN(Cc2ccc3nsnc3c2)C1 (stereo not shown),-71.4
10,O=C(COC(=O)CCc1nc2ccccc2c(=O)[nH]1)Nc1ccc2c(c1)OCO2,0.358
11,COc1ccc(-c2nnc(SC(C)C#N)o2)cc1 (stereo not shown),-8.79
12,COc1ccc(/C=N/Nc2ccc([N+](=O)[O-])cc2)cc1O,10.1
13,COc1ccc(O[C@@H]2O[C@H](COC(C)=O)[C@@H](OC(C)=O)[C@H](OC(C)=O)[C@H]2NC(C)=O)cc1,-10.7
14,O=C(NCC1COc2ccccc2O1)c1ccc(Cl)c(S(=O)(=O)N2CCCC2)c1 (stereo not shown),-15.1
15,CCCCN(C(=O)CN1CCOCC1)c1c(N)n(CC(C)C)c(=O)[nH]c1=O,-0.315
16,Cc1ccc2nc(C)c(C)nc2c1N,8.1
17,Cc1cccc(C)c1NC(=O)C1CCCN1C(=O)Nc1cccc(F)c1 (stereo not shown),8.23
18,COc1ccc(NC(=O)C2CCCN2C(=O)OC(C)(C)C)cc1 (stereo not shown),14.5
19,COc1cccc(/C(O)=C/c2nc3ccc(C(=O)NCCc4cccc(C)c4)cc3[nH]c2=O)c1,10
20,Cc1ccc(NC(=S)NCCc2c[nH]c3ccccc23)cc1,-1.12
21,C=C(C)C1CC=C(C)/C(=N\NC(=O)CCc2ccccc2)C1 (stereo not shown),13.4
22,O=C(c1ccco1)N1CCN(C(=O)c2ccc(COc3ccc(Cl)cc3Cl)o2)CC1,-70.4

row,Compound,"hERG current change (%, negative = inhibition) at 10uM [%]"
1,COc1ccc(CCN2C(=O)CC(Cc3ccccc3)C2=O)cc1OC (stereo not shown),-17.2
2,C=CCn1c(NS(=O)(=O)c2ccccc2)c(S(=O)(=O)c2ccc(C)cc2)c2nc3ccccc3nc21,-2.63
3,CCN(CC)CCCN=C(C)c1c(O)n(-c2ccc(C)cc2)c(=O)[nH]c1=O,15.1
4,COC(=O)c1cccc([N+](=O)[O-])c1CN1CCCC(C(N)=O)C1 (stereo not shown),18.4
5,COc1ccc(CCc2[nH+]c(C)ccc2O)cc1.[Cl-],21.4
6,Cn1c(=O)oc2cc(S(=O)(=O)Nc3cccc(F)c3)ccc21,6.89
7,Cc1cccc(COCCN2CCN(S(=O)(=O)c3ccccc3)CCC2=O)c1,-1.2
8,COC(=O)[C@@]1(Cc2ccc(F)cc2)[C@H]2c3cc(C(=O)N(C)C)[nH]c3C[C@H]2CN1C(=O)c1ccccc1,-27.9
9,CCOC(=O)c1c(OCCO)nn(-c2ccccc2)c1N,14.1
10,CCc1ccc(NC(=O)CSc2nc3nc(C)cc(C)n3n2)cc1,-9.14
11,O=C(NCc1ccccc1)C(=O)NCC1COc2ccccc2O1 (stereo not shown),-4.02
12,CCCCn1c(N)c(N(CC(C)C)C(=O)CN2C(=O)C3CCCCC3C2=O)c(=O)[nH]c1=O (stereo not shown),2.81
13,CCOc1ccc2ccccc2c1/C=N/NC(=O)c1ccncc1,0.0781
14,Cc1cccc2c(N=O)c(O)[nH]c12,13.5
15,CCN1C(=O)[C@H]2[C@@H](c3ccc(-c4ccccc4)c(OC)c3)N[C@@](Cc3ccccc3)(C(=O)OC)[C@H]2C1=O.O=C(O)C(F)(F)F,5
16,O=C(CSc1nnc(-c2ccc(Cl)cc2)n1-c1ccc(Cl)cc1)N/N=C/c1ccccc1C(=O)O,8.64
17,Cc1ccn2c(=O)nc(SCC(=O)OCc3ccccc3)nc2c1,-15.4
18,N#CCOc1nc(N2CCOCC2)nc(N2CCOCC2)n1,8.05
19,O=C(N/N=C/c1cc(Br)cs1)C(O)c1ccccc1 (stereo not shown),3
20,Cc1cc(N2CCC(C)CC2)nc(-n2nc(C)cc2C)n1,-30.3
21,O=C(NCCS(=O)(=O)N1CCC2(CC1)OCCO2)c1ccccc1,5.06
22,Cc1cc(N=Nc2ccccc2C)ccc1N,7.14

row,Compound,"hERG current change (%, negative = inhibition) at 10uM [%]"
1,CCOC(=O)c1[nH]c2ccc(OC)cc2c1NC(=O)CN1CCN(c2ccccn2)CC1,0.208
2,O=C(c1cccc(Cl)c1)N1CCC(c2nc3ccccc3[nH]2)CC1,-38.2
3,CC(C)(C)C(=O)Nc1nc2ccc(S(C)(=O)=O)cc2s1,6.28
4,NNC(=O)COc1ccc(F)cc1,9.33
5,COc1ccc2cc3cc(C(=O)NCCc4ccc(OC)c(OC)c4)oc3nc2c1,6.54
6,O=C1CC(c2cc(Br)ccc2F)c2cc3c(cc2N1)CCC3 (stereo not shown),-28.5
7,NC(=O)c1ccc(N=Cc2ccc([N+](=O)[O-])s2)cc1,8.6
8,CC1CC(N(C(=O)c2ccccc2Cl)c2ccccc2)c2ccccc2N1 (stereo not shown),11.7
9,COc1ccc(N2Cc3cccc(C(=O)N4CCN(C(=O)c5ccco5)CC4)c3C2=O)cc1,-29.6
10,COC(=O)c1ccccc1N=Nc1c(C)noc1C,6.19
11,C1=C(CCNc2ncnc3nc[nH]c23)CCCC1,-3.59
12,CN1C(=O)c2ccc(C(=O)Nc3ccccc3O)cc2C1=O,4.6
13,COc1ccc(CN2CCNC(=O)C2CC(=O)N(C)CC2CCOCC2)cc1OC (stereo not shown),7.8
14,COc1cc(C2N(Cc3ccccc3)CCN2Cc2ccccc2)ccc1OC(C)=O,1.77
15,Cc1ccc(-c2c(C)sc3ncn(CC(=O)N4CCOCC4)c(=O)c23)cc1C,-20.4
16,O=C1/C(=C/c2cccs2)SC(=S)N1C1CCS(=O)(=O)C1 (stereo not shown),2.16
17,C/C(=C\C(=O)c1ccncc1)Nc1ccccc1O,-34.9
18,CN(CC(=O)NC1CCCCC1)S(=O)(=O)c1ccc2c(c1)c(=O)n(C)c(=O)n2C,-7.6
19,Cc1cc(N/N=C/c2ccccc2F)c2ccccc2n1,9.06
20,CSc1ccc(S(=O)(=O)NCC(=O)OCC(=O)NCc2ccco2)cc1[N+](=O)[O-],-61.7
21,COc1ccc(C(=O)CSc2nc(C)cc(=O)[nH]2)cc1,16
22,COc1ccc2c(c1)c(CC(=O)Nc1nnc(C3CC3)s1)c(C)n2C(=O)c1ccc(Cl)cc1,28.2

# — PMC4336329 (PLoS ONE, 2015)
